Experimental findings from PubChem BioAssay AID1346428 (National Center for Advancing Translational Sciences (NCATS), 2018) are described below.

Hit rate of the full screen: of about 48,000 compounds, about 1,200 (2.5%) were called active. Roughly 2% stayed inconclusive and do not appear here.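 The calls were made as follows: active = activation of at least 60% and not above a set upper limit (about 1 call in 100 departs from these limits); inconclusive = activation of 40% to 60%, or above that upper limit; inactive = activation under 40%.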 This is one part of the list.

Chain of UniProt O75388 (O75388 whole entry, looked up, the tested form may be a part): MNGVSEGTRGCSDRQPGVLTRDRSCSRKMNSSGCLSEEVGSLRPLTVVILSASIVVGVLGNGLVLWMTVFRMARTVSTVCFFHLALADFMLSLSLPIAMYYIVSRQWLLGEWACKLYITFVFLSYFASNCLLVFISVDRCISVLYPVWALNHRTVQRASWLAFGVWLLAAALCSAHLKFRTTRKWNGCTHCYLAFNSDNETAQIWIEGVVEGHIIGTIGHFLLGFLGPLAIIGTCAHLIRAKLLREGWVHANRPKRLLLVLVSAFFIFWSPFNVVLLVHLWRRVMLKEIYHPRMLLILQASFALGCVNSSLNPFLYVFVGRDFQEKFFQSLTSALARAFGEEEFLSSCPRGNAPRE

The assay addresses Probable G-protein coupled receptor 32 (Homo sapiens) (UniProt O75388). In words: qHTS for Agonists of Human Resolvin D1 Receptor DRV1. Also: 0% is about no effect. Conditions: CHO-K1 GPR32 beta-arrestin PathHunter luminescence, 90 min; at 76.9 µM; hits give high values; zero percent set by DMSO-only wells. The essentials:
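Agonism was scored as beta-arrestin recruitment to ProLink-fused GPR32 in stably transfected CHO-K1 cells, giving a chemiluminescent beta-Gal signal; compounds were incubated 90 min at 37 °C.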
Consider `Cc1nc(-c2ccc(Cl)cc2)sc1CCNC(=O)C(=O)Nc1ccc(F)cc1F`, for which the activation was inactive: 8.19%.

For the molecule `Cc1ccccc1NC(=O)c1ccc(F)c(S(=O)(=O)N(C)Cc2ccccc2)c1`, the activation is inactive: -10.1%.

With `COc1ccc(NC(=O)CSc2cn(CC(=O)N3CCOCC3)c3ccccc23)cc1OC`, the activation was inactive: -1.74%.

As to `COc1cccc(N2CCN(C(=O)c3ccc4c(=O)n(CCc5ccccc5)c(=O)[nH]c4c3)CC2)c1`, the activation was inactive: 20.2%.

Take `Cc1c(CC(=O)NCCc2ccccc2F)c(=O)oc2c(C)c3occ(C(C)(C)C)c3cc12`: the activation was inactive: -22.5%.

As for `CC(C)COC(=O)/C(C#N)=C\c1ccc(-c2ccccc2Cl)o1`, the activation was inactive: -4.22%.

For the molecule `COc1ccccc1CNS(=O)(=O)c1cc(C(=O)Nc2cccc(C(F)(F)F)c2)ccc1F`, the activation was inactive: 15.4%.

With `Cc1ccc(Cl)c2c1N[C@@H](c1ccc(C(=O)O)cc1)[C@H]1CC=C[C@@H]21`, the activation is inactive: -14.4%.

As for `Cc1cccc(OCC(=O)Nc2c(C)ccc3nsnc23)c1C`, the activation is inactive: 36.4%.

`CCc1ccc(S(=O)(=O)c2nnn3c2nc(N2CCC(C)CC2)c2cc(Cl)ccc23)cc1`: the activation is inactive: -22.4%.

Consider `COc1ccc(-c2cc(C(=O)NCc3cc(OC)c(OC)c(OC)c3)[nH]n2)cc1`, for which the activation was inactive: -1.24%.

For the molecule `O=C(Nc1ccccc1)C(Cc1ccccc1)N1Cc2ccccc2C1=O` (stereo not drawn), the activation is inactive: -8.69%.

As for `CCOc1ccc(-c2nc(CSCC(=O)N3CCN(c4cccc(C(F)(F)F)c4)CC3)c(C)o2)cc1`, the activation was inactive: -25.5%.

For `O=C(CSc1ncc(S(=O)(=O)c2ccc(Br)cc2)c(=O)[nH]1)NCc1ccc(Cl)cc1`, the activation was inactive: 1.33%.

For `Cc1ccc(C)c(NC(=O)CCN2C(=O)c3ccccc3Sc3ncccc32)c1`, the activation was inactive: -15.1%.

On to `COc1ccc(C2=NS(=O)(=O)N(C)C(C(=O)Nc3cc(C)ccc3O)=C2)cc1OC`, for which the activation was inactive: 2.54%.

Take `COc1cccc(N2CCN(S(=O)(=O)c3cc(Br)cc4c3N(C(=O)C3CC3)CC4)CC2)c1`: the activation is inactive: 20.2%.

In the case of `Cc1nc(N2C(=O)c3oc4ccccc4c(=O)c3C2c2ccccc2F)sc1C` (stereo not drawn), the activation is inactive: -1.38%.

In the case of `CN1CCN(C(CNC(=O)C(=O)Nc2ccccc2)c2ccc3c(c2)OCO3)CC1` (stereo not drawn), the activation is inactive: 4.23%.

Consider `Cc1cccc(N2C(=O)CSC23C(=O)N(Cc2cccc(F)c2)c2ccccc23)c1` (stereo not drawn), for which the activation was inactive: -20.6%.

For the molecule `Cc1ccc(C)c(CSc2nc3ncccc3[nH]2)c1`, the activation is inactive: -0.461%.

For the molecule `Cc1cccc(-c2noc(CN(C(=O)COc3ccc(C(C)C)cc3)C(C)C)n2)c1`, the activation is inactive: 5.27%.

Take `CCOC(=O)c1c(C)n(-c2ccccc2)c2ccc(OC(=O)c3ccccc3)cc12`: the activation was inactive: -32.8%.
